Laboratory results taken from PubChem BioAssay AID485294 (National Center for Advancing Translational Sciences (NCATS), 2010).
About 150 (0.041%) of roughly 370,000 compounds were called active. Inconclusive means that the source gave no clear call. Such entries were picked first, then a sample of the others. Calls follow the shape of the dose curve; as a rule, active = well fitted inhibition curve with a large enough effect; inconclusive = small, poorly fitted or top-dose-only effect; inactive = flat fitted curve, though single readings scatter. Potencies of inconclusive entries are left out as doubtful fits.

The compounds below were run against Beta-lactamase (Escherichia coli (strain K12)) (UniProt P00811) (assay: qHTS Inhibitors of AmpC Beta-Lactamase (assay with detergent)). Details: AmpC hydrolysis of nitrocefin, absorbance 480 nm, 0.01% Triton; series mostly up to 114 µM.
UniProt P00811, sequence (P00811 whole entry, looked up): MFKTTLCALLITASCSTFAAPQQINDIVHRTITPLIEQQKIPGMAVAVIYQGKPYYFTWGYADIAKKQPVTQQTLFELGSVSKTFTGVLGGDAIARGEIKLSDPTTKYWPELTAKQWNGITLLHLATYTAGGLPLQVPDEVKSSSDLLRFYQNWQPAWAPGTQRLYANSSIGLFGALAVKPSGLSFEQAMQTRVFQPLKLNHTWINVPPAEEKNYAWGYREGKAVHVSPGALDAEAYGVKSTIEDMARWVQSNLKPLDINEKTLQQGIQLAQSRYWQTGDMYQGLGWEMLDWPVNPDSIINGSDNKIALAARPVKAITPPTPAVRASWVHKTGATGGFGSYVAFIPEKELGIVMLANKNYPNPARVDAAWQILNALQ
Procedure, shortened: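 AmpC (5.3 nM in the dispensed reagent) in 20 mM phosphate pH 7.0 with 0.01% (detergent screen) or 0.0001% Triton X-100 was preincubated with compounds for 15 min at room temperature. Nitrocefin was then added from an 800 uM solution, and hydrolysis was followed at 480 nm.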
Also: nearly all actives have a fitted effect of over 25% in size.
Potency is read from the fitted curve at half-maximal effect; tags tell the direction and shape of the fitted curve.

SMILES	Potency
CC1=C(C#N)C(c2ccoc2)C(C(=O)OCc2ccccc2)=C(N)S1 (stereo not given)	inactive
Clc1ccc(/C=N/Nc2nc(Cl)nc3ccccc23)cc1	inactive
COc1c(Br)cc(/C=N/n2c(-c3ccccc3)n[nH]c2=S)c(O)c1Br	inconclusive [inhibitor, full curve]
Cc1nc(N2CCN(c3ccccc3O)CC2)c2c(-c3ccccc3)csc2n1	inconclusive [inhibitor, full curve, poor fit]
CCOC(=O)c1sc(NC(=O)c2ccco2)nc1-c1ccccc1	inconclusive [inhibitor, full curve]
Cc1nc2c(-c3ccccc3)c(C)nn2c(N)c1-c1ccccc1	inconclusive [inhibitor, partial curve, poor fit]
CC(NC(=S)Nc1ccccc1Cl)C(c1cccs1)N1CCCC1 (stereo not given)	inactive
COc1ccc(CCN2C(=O)CCC2(C)C(=O)NCc2cccnc2)cc1OC (stereo not given)	inconclusive [inhibitor, single point]
O=c1[nH]c(-c2ccccn2)cc2ccccc12	inactive
C=CCOc1ccc(C2/C(=C(\O)c3c(C)[nH]c(C(=O)OC)c3C)C(=O)C(=O)N2CCN(C)C)cc1 (stereo not given)	inconclusive [inhibitor, full curve, poor fit]
CCOC(=O)c1cc(-c2ccc(OC)cc2F)nc2c1c(C)nn2CCC#N	inconclusive [inhibitor, full curve]
CCC1COCCS(=O)(=O)N1Cc1ccccc1F (stereo not given)	inconclusive [inhibitor, partial curve]
O=C(CN1CCN(CC(=O)Nc2ccccc2Cl)CC1)NCC1(N2CCOCC2)CCCCC1	inactive
COc1ccccc1CNCC(c1ccccc1)c1ccccc1	inconclusive [inhibitor, full curve, poor fit]
Nc1nc(N2CCN(c3ccccn3)CC2)nc2ccccc12	inconclusive [inhibitor, full curve, poor fit]
Cc1nc(N2CCCCC2)c2c(C)c(C(=O)Nc3ccc4c(c3)OCCO4)sc2n1	inactive
Cc1cccc(OCC(=O)Nc2ccc3c(c2)OCCO3)c1	inconclusive [inhibitor, partial curve]
COCCCNC(=O)C1CCN(Cc2cc3ccccc3n2Cc2cccc(Cl)c2)CC1	inactive
O=C(COC(=O)c1cc(=O)[nH]c2ccccc12)NCc1ccc(F)cc1	inconclusive [inhibitor, full curve, poor fit]
CCOc1ccccc1NC(=O)Cn1c(=O)c2ccccc2n(CC)c1=O	inconclusive [inhibitor, single point]
